In patent US20240270806A1 (Chugai, published 2024):
Read-outs that look alike come from different tables or passages of the source.

Key:
Assay in all cases: cell-based or functional assay
[1] = target: T1, Human IL-12 receptor (human IL-12Rb1 and IL-12Rb2) (human, UniProt P42701 24-662; Q99665 24-862)
[2] = target: T1, Human IL-12 receptor (human IL-12Rb1 …); remark: listed apart in the source
[3] = target: T1, Human IL-12 receptor (human IL-12Rb1 …); remark: listed apart in the source
[4] = target: T1, Human IL-12 receptor (human IL-12Rb1 …); remark: listed apart in the source
[5] = target: T1, Human IL-12 receptor (human IL-12Rb1 …); remark: listed apart in the source

Binder | Fold change (window), IL-12 luciferase assay [1] | Fold change (window), IL-12 luciferase assay [2] | Fold change (window), IL-12 luciferase assay [3] | Fold change (window), Donor 1, IFN gamma release by human PBMC [4] | Fold change (window), Donor 2, IFN gamma release by human PBMC [4] | Fold change (window), Donor 3, IFN gamma release by human PBMC [4] | EC50 (read off the curve), IL-12 luciferase reporter assay (+ MTSP1) [middle graph] [5] | EC50 (read off the curve), IL-12 luciferase reporter assay (without protease) [middle graph] [5] | EC50 (read off the curve), IL-12 luciferase reporter assay (+ MTSP1) [bottom graph] [5]
Bivalent IL-12 fusion protein FP14 (Ab101H89-12aa0054-C4-L4-IL12v1.KHKE/Ab102L69-SK1) (other) heavy: QVQLVQSGAEVKKPGSSVKVSCKASGGTFSDYYLHWSRQAPGQGLEWMGWIDPENGDTEYAPKFQGRVTITADESTSTAYMELSSLRSEDTAVYYCARNKELRYIDVWGQGTLVTVSSTSGSGRSATPRGASTKGPSVFPLAPCSKSTSGGTAALGCLVKDYFPEPVTVSWNSGALTSGVHTFPAVLQSSGLYSLSSVVTVPSSSLGTQTYICNVNHKPSNTKVDKRVGGGGSGGGGS[human IgG1 Fc with changes cut from this listing]GSGGSGGSGGSGGSGGSIWELKKDVYVVELDWYPDAPGEMVVLTCDTPEEDGITWTLDQSSEVLGSGKTLTIQVKEFGDAGQYTCHKGGEVLSHSLLLLHKKEDGIWSTDILKDQKEPKNKTFLRCEAKNYSGRFTCWWLTTISTDLTFSVKSSRGSSDPQGVTCGAATLSAERVRGDNKEYEYSVECQEDSACPAAEESLPIEVMVDAVHKLKYENYTSSFFIRDIIKPDPPKNLQLKPLKNSRQVEVSWEYPDTWSTPHSYFSLTFCVQVQGKHKEKKDRVFTDKTSATVICRKNASISVRAQDRYYSSSWSEWASVPCSGGGGSGGGGSGGGGSGGGGSNLPVATPDPGMFPCLHHSQNLLRAVSNMLQKARQTLEFYPCTSEEIDHEDITKDKTSTVEACLPLELTKNESCLNSRETSFITNGSCLASRKTSFMMALCLSSIYEDLKMYQVEFKTMNAKLLMDPKRQIFLDQNMLAVIDELMQALNFNSETVPQKSSLEEPDFYKTKIKLCILLHAFRIRAVTIDRVMSYLNAS light: DIVMTQSPLSLPVTPGEPASISCRASQSISINLHWYQQKPGQAPRQLIAFASQSISGVPSRFSGSGSGTDFTLTISSLQPEDFATYYCQQSNSFPLTFGQGTKVEIKRTVAAPSVFIFPPSDEQLKSGTASVVCLLNNFYPREAKVQWKVDNALQSGNSQESVTEQDSKDSTYSLSSTLTLSKADYEKHKVYACEVTHQGLSSPVTKSFNRGEC | 34.7 fold | 23 fold | 43.1 fold | 94.4 fold | 113 fold | 54.9 fold |  |  | 
Bivalent IL-12 fusion protein FP26 (other) heavy: QVQLVQSGAEVKKPGSSVKVSCKASGGTFSDYYLHWSRQAPGQGLEWMGWIDPENGDTEYAPKFQGRVTITADESTSTAYMELSSLRSEDTAVYYCARNKELRYIDVWGQGTLVTVSSTSGSGRSATPRGASTKGPSVFPLAPCSKSTSGGTAALGCLVKDYFPEPVTVSWNSGALTSGVHTFPAVLQSSGLYSLSSVVTVPSSSLGTQTYICNVNHKPSNTKVDKRVGGGGSGGGGS[human IgG1 Fc with changes cut from this listing]GSGGSGGSGGSGGSGGSIWELKKDVYVVELDWYPDAPGEMVVLTCDTPEEDGITWTLDQSSEVLGSGKTLTIQVKAFGDAGQYTCHKGGEVLSHSLLLLHKKEDGIWSTDILKDQKEPKNKTFLRCEAKNYSGRFTCWWLTTISTDLTFSVKSSRGSSDPQGVTCGAATLSAERVRGDNKEYEYSVECQEDSACPAAEESLPIEVMVDAVHKLKYENYTSSFFIRDIIKPDPPKNLQLKPLKNSRQVEVSWEYPDTWSTPHSYFSLTFCVQVQGKHKEKKDRVFTDKTSATVICRKNASISVRAQDRYYSSSWSEWASVPCSGGGGSGGGGSGGGGSGGGGSNLPVATPDPGMFPCLHHSQNLLRAVSNMLQKARQTLEFYPCTSEEIDHEDITKDKTSTVEACLPLELTKNESCLNSRETSFITNGSCLASRKTSFMMALCLSSIYEDLKMYQVEFKTMNAKLLMDPKRQIFLDQNMLAVIDELMQALNFNSETVPQKSSLEEPDFYKTKIKLCILLHAFRIRAVTIDRVMSYLNAS light: DIVMTQSPLSLPVTPGEPASISCRASQSISINLHWYQQKPGQAPRQLIAFASQSISGVPSRFSGSGSGTDFTLTISSLQPEDFATYYCQQSNSFPLTFGQGTKVEIKRTVAAPSVFIFPPSDEQLKSGTASVVCLLNNFYPREAKVQWKVDNALQSGNSQESVTEQDSKDSTYSLSSTLTLSKADYEKHKVYACEVTHQGLSSPVTKSFNRGEC |  |  | 341 fold | 174 fold | 123 fold | 129 fold |  |  | 
Bivalent IL-12 fusion protein FP27 (other) heavy: QVQLVQSGAEVKKPGSSVKVSCKASGGTFSDYYLHWSRQAPGQGLEWMGWIDPENGDTEYAPKFQGRVTITADESTSTAYMELSSLRSEDTAVYYCARNKELRYIDVWGQGTLVTVSSTSGSGRSATPRGASTKGPSVFPLAPCSKSTSGGTAALGCLVKDYFPEPVTVSWNSGALTSGVHTFPAVLQSSGLYSLSSVVTVPSSSLGTQTYICNVNHKPSNTKVDKRVGGGGSGGGGS[human IgG1 Fc with changes cut from this listing]GSGGSGGSGGSGGSGGSIWELKKDVYVVELDWYPDAPGEMVVLTCDTPEEDGITWTLDQSSEVLGSGKTLTIQVKEAGDAGQYTCHKGGEVLSHSLLLLHKKEDGIWSTDILKDQKEPKNKTFLRCEAKNYSGRFTCWWLTTISTDLTFSVKSSRGSSDPQGVTCGAATLSAERVRGDNKEYEYSVECQEDSACPAAEESLPIEVMVDAVHKLKYENYTSSFFIRDIIKPDPPKNLQLKPLKNSRQVEVSWEYPDTWSTPHSYFSLTFCVQVQGKHKEKKDRVFTDKTSATVICRKNASISVRAQDRYYSSSWSEWASVPCSGGGGSGGGGSGGGGSGGGGSNLPVATPDPGMFPCLHHSQNLLRAVSNMLQKARQTLEFYPCTSEEIDHEDITKDKTSTVEACLPLELTKNESCLNSRETSFITNGSCLASRKTSFMMALCLSSIYEDLKMYQVEFKTMNAKLLMDPKRQIFLDQNMLAVIDELMQALNFNSETVPQKSSLEEPDFYKTKIKLCILLHAFRIRAVTIDRVMSYLNAS light: DIVMTQSPLSLPVTPGEPASISCRASQSISINLHWYQQKPGQAPRQLIAFASQSISGVPSRFSGSGSGTDFTLTISSLQPEDFATYYCQQSNSFPLTFGQGTKVEIKRTVAAPSVFIFPPSDEQLKSGTASVVCLLNNFYPREAKVQWKVDNALQSGNSQESVTEQDSKDSTYSLSSTLTLSKADYEKHKVYACEVTHQGLSSPVTKSFNRGEC |  |  | 441 fold | 282 fold | 173 fold | 203 fold |  |  | 
Bivalent IL-12 fusion protein FP11 (Ab101H89-12aa-C4-L4-IL12006v1.KHKE//Ab102L69-SK1) (other) heavy: QVQLVQSGAEVKKPGSSVKVSCKASGGTFSDYYLHWSRQAPGQGLEWMGWIDPENGDTEYAPKFQGRVTITADESTSTAYMELSSLRSEDTAVYYCARNKELRYIDVWGQGTLVTVSSTSTSGRSANPRGASTKGPSVFPLAPCSKSTSGGTAALGCLVKDYFPEPVTVSWNSGALTSGVHTFPAVLQSSGLYSLSSVVTVPSSSLGTQTYICNVNHKPSNTKVDKRVGGGGSGGGGS[human IgG1 Fc with changes cut from this listing]GSGGSGGSGGSGGSGGSIWELKKDVYVVELDWYPDAPGEMVVLTCDTPEEDGITWTLDQSSEVLGSGKTLTIQVKEFGDAGQYTCHKGGEVLSHSLLLLHKKEDGIWSTDILKDQKEPKNKTFLRCEAKQYSGRFTCWWLTTISTDLTFSVKSSRGSSDPQGVTCGAATLSAERVRGDNKEYEYSVECQEDSACPAAEESLPIEVMVDAVHKLKYEQYTSSFFIRDIIKPDPPKNLQLKPLKNSRQVEVSWEYPDTWSTPHSYFSLTFCVQVQGKHKEKKDRVFTDKTSATVICRKNASISVRAQDRYYSSSWSEWASVPCSGGGGSGGGGSGGGGSGGGGSNLPVAAPDPGMFPCLHHSQNLLRAVSNMLQKARQTLEFYPCTSEEIDHEDITKDKTSTVEACLPLELTKQESCLNSRETSFITQGSCLASRKTSFMMALCLSSIYEDLKMYQVEFKTMNAKLLMDPKRQIFLDQNMLAVIDELMQALNFNSETVPQKSSLEEPDFYKTKIKLCILLHAFRIRAVTIDRVMSYLQAS light: DIVMTQSPLSLPVTPGEPASISCRASQSISINLHWYQQKPGQAPRQLIAFASQSISGVPSRFSGSGSGTDFTLTISSLQPEDFATYYCQQSNSFPLTFGQGTKVEIKRTVAAPSVFIFPPSDEQLKSGTASVVCLLNNFYPREAKVQWKVDNALQSGNSQESVTEQDSKDSTYSLSSTLTLSKADYEKHKVYACEVTHQGLSSPVTKSFNRGEC |  |  |  |  |  |  | ~0.3 nM | ~6 nM | 
Bivalent IL-12 fusion protein FP12 (other) heavy: QVQLVQSGAEVKKPGSSVKVSCKASGGTFSDYYLHWSRQAPGQGLEWMGWIDPENGDTEYAPKFQGRVTITADESTSTAYMELSSLRSEDTAVYYCARNKELRYIDVWGQGTLVTVSSTSTSGRSANPRGASTKGPSVFPLAPCSKSTSGGTAALGCLVKDYFPEPVTVSWNSGALTSGVHTFPAVLQSSGLYSLSSVVTVPSSSLGTQTYICNVNHKPSNTKVDKRVGGGGSGGGGS[human IgG1 Fc with changes cut from this listing]GSGGSGGSGGSGGSGGSIWELKKDVYVVELDWYPDAPGEMVVLTCDTPEEDGITWTLDQSSEVLGSGKTLTIQVKEFGDAGQYTCHKGGEVLSHSLLLLHKKEDGIWSTDILKDQKEPKNKTFLRCEAKQYSGRFTCWWLTTISTDLTFSVKSSRGSSDPQGVTCGAATLSAERVRGDNKEYEYSVECQEDSACPAAEESLPIEVMVDAVHKLKYEQYTSSFFIRDIIKPDPPKNLQLKPLKNSRQVEVSWEYPDTWSTPHSYFSLTFCVQVQGKHKEKKDRVFTDKTSATVICRKNASISVRAQDRYYSSSWSEWASVPCSGGGGSGGGGSGGGGSGGGGSNLPVAAPDPGMFPCLHHSQNLLRAVSNMLQKARQTLEFYPCTSEEIDHEDITKDKTSTVEACLPLELTKQESCLNSRETSFITQGSCLASRKTSFMMALCLSSIYEDLKMYQVEFKTMNAKLLMDPKRQIFLDQNMLAVIDELMQALNFNSETVPQKSSLEEPDFYKTKIKLCILLHAFRIRAVTIDRVMSYLQAS light: DIVMTQSPLSLPVTPGEPASISCRASQSIVINLHWYQQKPGQAPRQLIAFASQSISGVPSRFSGSGSGTDFTLTISSLQPEDFATYYCQQSNSFPLTFGQGTKVEIKRTVAAPSVFIFPPSDEQLKSGTASVVCLLNNFYPREAKVQWKVDNALQSGNSQESVTEQDSKDSTYSLSSTLTLSKADYEKHKVYACEVTHQGLSSPVTKSFNRGEC |  |  |  |  |  |  |  |  | ~0.4 nM
